Data taken from a compilation of properties of binary mixtures (doi:10.1016/j.jct.2017.07.022).
The densities may have been worked out from excess volumes.

Assay: xn = mol fraction of the nth substance listed
Conditions: 100 kPa

CC[n+]1ccccc1.N#C[N-]C#N + CC(C)O
mass density [kg/m3]
Conditions | x2 = 0 | x2 = 0.1055 | x2 = 0.1999 | x2 = 0.2997 | x2 = 0.4023 | x2 = 0.499 | x2 = 0.5998 | x2 = 0.7006 | x2 = 0.8007 | x2 = 0.8997
288.15 K | 1124.7 | 1106.7 | 1089.5 | – | 1047.4 | 1022.5 | 991.9 | 955.4 | 911.6 | 858.2
293.15 K | 1121.6 | – | 1086.3 | 1067.3 | 1044.1 | 1019.2 | 988.5 | 951.9 | 908 | 854.4
298.15 K | 1118.5 | 1100.4 | 1083.1 | 1064.1 | – | 1015.9 | 985.1 | 948.5 | 904.4 | 850.6
303.15 K | 1115.3 | 1097.1 | 1079.9 | 1060.8 | 1037.6 | 1012.6 | – | 945 | 900.7 | 846.7
308.15 K | 1112.2 | 1094 | 1076.7 | 1057.6 | 1034.3 | 1009.3 | 978.4 | – | 897.1 | –
313.15 K | – | 1090.8 | 1073.6 | 1054.4 | 1031.1 | 1006.1 | – | – | – | 839
318.15 K | 1105.9 | 1087.7 | 1070.4 | 1051.2 | 1027.9 | 1002.8 | – | – | 889.8 | 835

CC[n+]1ccccc1.N#C[N-]C#N + CCCO
mass density [kg/m3]
Conditions | x2 = 0 | x2 = 0.1095 | x2 = 0.1947 | x2 = 0.3011 | x2 = 0.4029 | x2 = 0.5008 | x2 = 0.6003 | x2 = 0.702 | x2 = 0.8012 | x2 = 0.9
288.15 K | 1124.7 | – | – | 1073.1 | 1051.8 | 1028.8 | 1001 | 966.2 | – | 874
293.15 K | – | 1104 | 1089.6 | – | 1048.5 | 1025.5 | 997.6 | 962.7 | – | 870.3
298.15 K | 1118.5 | 1100.9 | 1086.4 | 1066.6 | 1045.2 | – | 994.1 | 959.3 | 917.8 | –
303.15 K | 1115.3 | 1097.7 | 1083.2 | 1063.4 | – | 1018.9 | 990.8 | – | 914.2 | 862.8
308.15 K | 1112.2 | 1094.5 | – | 1060.2 | 1038.7 | – | 987.5 | 952.4 | – | –
313.15 K | 1109 | 1091.3 | – | 1056.9 | 1035.4 | – | 984.1 | 948.9 | 907 | 855.2
318.15 K | – | 1088.2 | 1073.7 | 1053.8 | 1032.2 | – | 980.8 | – | 903.4 | –

CC[n+]1ccccc1.N#C[N-]C#N + CCO
mass density [kg/m3]
Conditions | x2 = 0 | x2 = 0.1008 | x2 = 0.1974 | x2 = 0.3008 | x2 = 0.3994 | x2 = 0.5058 | x2 = 0.5994 | x2 = 0.6996 | x2 = 0.7999 | x2 = 0.9011
288.15 K | – | – | 1098.6 | 1083.4 | 1065.3 | 1042.1 | 1016.7 | 982.9 | 939.2 | 879.4
293.15 K | 1121.6 | – | 1095.4 | 1080.2 | 1062.2 | 1038.9 | 1013.5 | 979.3 | 935.6 | 875.5
298.15 K | – | 1105.6 | – | – | 1059.2 | 1035.8 | 1010.4 | 976 | – | 871.6
303.15 K | 1115.3 | 1102.5 | 1089.1 | 1073.8 | 1055.8 | 1032.5 | 1006.9 | 972.4 | 928.2 | –
308.15 K | 1112.2 | 1099.3 | 1086 | 1070.6 | 1052.7 | – | 1003.8 | 969.1 | 924.6 | 863.8
313.15 K | 1109 | 1096.1 | 1082.7 | 1067.6 | – | – | – | – | 920.9 | 859.8
318.15 K | 1105.9 | – | 1079.7 | 1064.4 | – | 1023.2 | 997.6 | 962.8 | 917.3 | 855.9

CC(C)O + CC[n+]1ccccc1.N#C[N-]C#N
x1 = 1
Conditions | mass density [kg/m3]
288.15 K | 789.4
293.15 K | 785.3
298.15 K | 781.1
303.15 K | 776.8
308.15 K | 772.5
313.15 K | 768
318.15 K | 763.5

CCCO + CC[n+]1ccccc1.N#C[N-]C#N
x1 = 1
Conditions | mass density [kg/m3]
293.15 K | 803.6
298.15 K | 799.6
303.15 K | 795.6
308.15 K | 791.5
313.15 K | 787.4
318.15 K | 783.2

CCO + CC[n+]1ccccc1.N#C[N-]C#N
x1 = 1
Conditions | mass density [kg/m3]
293.15 K | 789.7
298.15 K | 785.7
303.15 K | 781.1
308.15 K | 776.7
313.15 K | 772.3
318.15 K | 767.9
